Data as given in PubChem BioAssay AID686970 (National Center for Advancing Translational Sciences (NCATS), 2013).
The whole screen tested about 360,000 compounds, of which about 6,000 (1.7%) were called active. Inconclusive results, whose numbers are uncertain, are shown with a selection of clear calls. The call rests on the fitted dose curve; in most records, active means well fitted cell-killing curve with a large enough effect; inconclusive means small, poorly fitted or top-dose-only effect, or effect the other way; inactive means flat fitted curve, though single readings scatter. No potency is given beside an inconclusive call; the fits are too rough.
Potency means the concentration at half of the fitted maximal effect; tags describe the fitted curve by direction and shape.

Experiment: qHTS for induction of synthetic lethality in tumor cells producing 2HG: qHTS for the HT-1080-NT fibrosarcoma cell line;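 further: NT is the 2HG producing partner of a matched IDH1 knockdown line; nearly all actives have a fitted effect of over 55% in size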;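 on activity, negative = less viability: 0% = DMSO-treated cells and -100% = media-only wells without cells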
Conditions: HT-1080-NT fibrosarcoma viability, CellTiter-Glo ATP luminescence, 48 h; activity, negative = less viability: at 46.1 µM (top of the series) unless noted
Procedure, shortened: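 750 cells/well, RPMI + 5% FBS; 2 h settle, compound pin-transfer, 48 h at 37 degrees C. CellTiter-Glo 10 min RT, luminescence. Normalized to DMSO and media-only wells.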
For `COc1cc(OC)cc(-c2c(-c3ccc(F)cc3)c3cc(-c4ccc(SC)cc4)ccc3n2C)c1`, the Potency was “inactive”. With `CCc1ccccc1NC(=O)c1ccc([N+](=O)[O-])s1` the Potency was inconclusive [cytotoxic, single point]. In the case of `CC(C)(C)OC(=O)N1Cc2ccccc2C[C@H]1C(=O)NCC(=O)NCC1CCCO1` (stereo partly specified), the Potency is reported as “inactive”. With `Cc1ccc(C)c(-c2[nH]ncc2CN2CCCC(CO)(Cc3ccccc3C)C2)c1` (stereo unspecified) the Potency was inconclusive [cytotoxic, full curve]. In the case of `CCN(CC)c1nc(NC2CCN(C)CC2)c2cc(OC)c(OC)cc2n1`, the Potency is reported as inconclusive [cytotoxic, partial curve]. For `COCCOC(=O)C1=C(C)NC(=O)NC1c1cccc2ccccc12` (stereo unspecified), the Potency was “inactive”. For `O=C(NNC(=O)C(c1ccccc1)c1ccccc1)c1ccccn1`, the Potency was inconclusive [cytotoxic, full curve, poor fit]. In the case of `C=CCn1c(Cc2cccs2)nnc1SCC(=O)c1cccc(Br)c1`, the Potency is reported as “inactive”. For `Cc1ccc(C(C)C)c(OCC(=O)NC(=S)Nc2ccccc2N2CCOCC2)c1`, the Potency was inconclusive [cytotoxic, single point]. For `CCOCc1nnc(NC(=O)COc2ccc3c(c2)OCO3)s1`, the Potency was inconclusive [cytotoxic, full curve]. For `CCOC(=O)N1CCN(S(=O)(=O)c2cc(C)c(C)cc2C)CC1`, the Potency was “inactive”. In the case of `Cc1cccc(C)c1NS(=O)(=O)c1ccc(NC(=O)c2ccc(Cl)c([N+](=O)[O-])c2)cc1`, the Potency is reported as inconclusive [cytotoxic, single point]. With `CCOC(=O)C1=C[C@@H](C2CCCCC2)N(S(=O)(=O)c2ccc([N+](=O)[O-])cc2)[C@H]1c1ccccc1` the Potency was inconclusive [cytotoxic, partial curve]. With `CCOc1cccc2sc(N(CCN(C)C)C(=O)/C=C/c3cccs3)nc12` the Potency was inconclusive [cytotoxic, single point]. In the case of `COc1cccc(C(CC(=O)Nc2cccc3ccccc23)NC(=O)c2ccccc2)c1` (stereo unspecified), the Potency is reported as inconclusive [cytotoxic, single point]. For `CSc1ccc(C(=O)/C=C/c2ccc(N)cc2)cc1`, the Potency was inconclusive [cytotoxic, single point]. For `CC(NC(=O)Cc1ccsc1)c1ccc(Cl)cc1Cl` (stereo unspecified), the Potency was “inactive”. With `Cc1cccc(Cn2c(C(C)(C)C)cc3cccnc32)c1` the Potency was inconclusive [cytotoxic, single point]. With `CC(=O)c1c(CSc2ccccc2)oc2ccc(O)c(CN(C)C)c12` the Potency was inconclusive [cytotoxic, partial curve]. With `COc1ccc(-c2csc(Nc3ccc(C)cn3)n2)cc1` the Potency was inconclusive [cytotoxic, single point]. With `CC1(Oc2ccccc2-c2ccn[nH]2)CCN(Cc2ccc(OC(F)(F)F)cc2)C1` (stereo unspecified) the Potency was inconclusive [cytotoxic, single point]. In the case of `O=C(CCl)Nc1cccc(-c2cnc3ccccc3n2)c1`, the Potency is reported as inconclusive [cytotoxic, single point]. In the case of `CC(C)COc1ccc(CNC(=S)NCc2ccccc2)cc1`, the Potency is reported as inconclusive [cytotoxic, single point]. With `CC(C)C(N)c1csc(Nc2ccc(C(=O)N(C)Cc3ccccc3)cn2)n1` (stereo unspecified) the Potency was active: 14.6 µM. For `Cc1ccc(NC(=O)CSc2nnc(-c3ccco3)c(-c3ccco3)n2)cc1`, the Potency was active: 7.31 µM. For `CSc1ccc(/C=C/C(=O)c2ccc(O)cc2)cc1`, the Potency was inconclusive [cytotoxic, single point]. For `CCOC(=O)N1CCN(c2c(F)cc3[nH]c(=S)[nH]c3c2Br)CC1`, the Potency was active: 15.8 µM. With `NC(Cc1ccccc1)c1csc(Nc2ccc(C(F)(F)F)cn2)n1` (stereo unspecified) the Potency was inconclusive [cytotoxic, single point]. With `COc1ccc(OCCC(=O)OCC(=O)Nc2ccc(S(=O)(=O)N3CCOCC3)cc2)cc1` the Potency was “inactive”. For `Cc1ccc(OCC(=O)NCCCNC(=O)c2cccnc2)cc1`, the Potency was inconclusive [cytotoxic, partial curve]. In the case of `COc1ccc(C(=O)CN2CCN(CCN3C(=O)c4cccc5cccc(c45)C3=O)CC2)cc1`, the Potency is reported as “inactive”. For `CCCc1c(-c2ccc(F)cc2F)ncn1Cc1ccccc1OC`, the Potency was active: 18.4 µM. For `Cc1ccc2nc(Nc3ccccc3O)nc(-c3ccccc3)c2c1`, the Potency was inconclusive [cytotoxic, single point]. In the case of `CCOC(=O)C(NC(C)=O)(Nc1ccc(S(=O)(=O)Nc2ccncn2)cc1)C(F)(F)F` (stereo unspecified), the Potency is reported as inconclusive [rising, partial curve, poor fit]. For `O=[N+]([O-])c1c(Nc2ccc(O)cc2)cc(Cl)c2nonc12`, the Potency was active: 9.2 µM. With `CCCC[n+]1ccn(C2=C([O-])c3ccccc3C(=O)/C2=N\S(=O)(=O)c2ccc(Cl)cc2)c1` the Potency was inconclusive [cytotoxic, single point]. In the case of `Cc1ccccc1Oc1ccc2c(c1)[C@@H]1C[C@H](N(C)C(=S)Nc3ccc(F)cc3)[C@H]([C@H](C)O)C(=O)N1CC2`, the Potency is reported as inconclusive [cytotoxic, partial curve]. For `Cn1c(=O)c2c(nc(N3CCc4ccccc4C3)n2Cc2ccc(Br)cc2)n(C)c1=O`, the Potency was “inactive”. With `N#Cc1ccccc1Cn1cc(/C=C/[N+](=O)[O-])c2ccccc21` the Potency was active: 23.1 µM. With `COC(=O)c1ccc(C(NC(=O)OCc2ccccc2)/C(F)=C/[C@@H](C)C(=O)NCc2ccc(OC)c(OC)c2)cc1` (stereo partly specified) the Potency was inconclusive [cytotoxic, single point]. In the case of `Brc1ccc(/C=C/C=N/Nc2nc3ccccc3s2)cc1`, the Potency is reported as inconclusive [cytotoxic, single point]. For `CCOc1ccc2[nH]c(=O)c(CN(Cc3nnnn3Cc3ccco3)C3CCCCC3)cc2c1`, the Potency was “inactive”. With `CCC(=O)NC1(Cc2ccc(O)cc2)CCCCC1` the Potency was “inactive”. For `CN(Cc1ccccc1)C(=O)c1ccc(Nc2nc(C(N)Cc3ccccc3)cs2)nc1` (stereo unspecified), the Potency was inconclusive [cytotoxic, single point]. For `COc1cccc(OC)c1C(=O)Nc1nc2cc3c(cc2s1)OCO3`, the Potency was inconclusive [rising, single point]. In the case of `CN(C)S(=O)(=O)c1cccc(NC(=S)NNC(=O)c2cc3ccccc3cc2O)c1`, the Potency is reported as inconclusive [cytotoxic, single point]. For `CC(C)(C)c1cc(Cl)ccc1OCCOCCN1CCCC1`, the Potency was active: 14.6 µM. In the case of `CCCCCCCCCC(=O)N[C@H](CN1CCOCC1)[C@H](O)c1ccccc1`, the Potency is reported as active: 16.4 µM. In the case of `CC(=O)Nc1ccc(-c2ccnc3c2CC(C(=O)NCC2CCOCC2)O3)cc1` (stereo unspecified), the Potency is reported as inconclusive [cytotoxic, partial curve]. With `CC(/C=N/NC(=O)c1n[nH]c2c1CCC2)=C\c1ccccc1` the Potency was active: 0.184 µM. In the case of `O=C(CN1CCN(S(=O)(=O)c2ccc(Br)cc2)CC1)N/N=C/c1ccc(Cl)c([N+](=O)[O-])c1`, the Potency is reported as inconclusive [cytotoxic, single point]. In the case of `CCCc1nc2sc3c(c2c(=O)[nH]1)CCCC3`, the Potency is reported as “inactive”. With `CCC(=O)NC(c1ccco1)c1cc(Cl)c2cccnc2c1O` (stereo unspecified) the Potency was inconclusive [cytotoxic, partial curve, poor fit]. In the case of `CCCCOc1ccc(C(=O)C(CN2CCOCC2)c2ccccc2)cc1` (stereo unspecified), the Potency is reported as active: 13 µM. In the case of `O=C(Nc1ccc(Cl)cc1)Nc1ccc2c(c1)N1CCN=C1S2`, the Potency is reported as active: 20.6 µM. In the case of `COc1ccc(OCCN2CCN(C(=O)c3ccc(OC)cc3)CC2)cc1`, the Potency is reported as inconclusive [cytotoxic, partial curve]. For `CC(C)CC(=O)/C(=C\c1ccc(Cl)cc1Cl)n1cncn1`, the Potency was active: 5.8 µM. For `NS(=O)(=O)c1cnccc1Oc1cccc(Cl)c1`, the Potency was inconclusive [rising, single point]. With `COc1ccc(Cl)cc1S(=O)(=O)n1cnc2ccccc21` the Potency was “inactive”. In the case of `CCOc1ccc(N2C(=O)C(Cl)=C(Nc3ccccc3O)C2=O)cc1`, the Potency is reported as “inactive”. For `c1ccc(-c2ccccc2OCCOCCN2CCc3ccccc3C2)cc1`, the Potency was inconclusive [cytotoxic, single point]. For `O=C(NCc1ccccn1)[C@@H]1CCCN1C(=O)[C@@H]1CCCN1C(=O)c1cccs1`, the Potency was “inactive”. With `CN(C)C(=O)c1cccc(-c2cnc3c(NC=O)cc(-c4cccc(C(F)(F)F)c4)cn23)c1` the Potency was active: 23.1 µM. For `Cc1ccc(/C=C/C(=O)OCC(=O)NCCN2C(=O)CSC2=O)cc1`, the Potency was inconclusive [cytotoxic, single point]. In the case of `CC1CCc2c(sc(NC(=O)CSc3nc4c(c(C(F)(F)F)n3)CCc3ccccc3-4)c2C(N)=O)C1` (stereo unspecified), the Potency is reported as inconclusive [rising, partial curve]. For `CSc1nsc(SC)c1C(=O)N1CCN(S(=O)(=O)c2ccc(C)cc2)C1C(C)C` (stereo unspecified), the Potency was inconclusive [cytotoxic, single point]. In the case of `COC(CNC(=O)c1ccc2c3c(onc13)-c1ccccc1C2=O)OC`, the Potency is reported as active: 23.1 µM. With `CNS(=O)(=O)c1ccc(CCC(=O)N2CCN(c3ccccc3OC)CC2)cc1` the Potency was “inactive”. For `O=C(NCC1CCCCC1)C1CCCN(C(=O)NC2CCCCC2)C1` (stereo unspecified), the activity, negative = less viability was inconclusive: 10.3%. In the case of `COc1ccccc1CC(=O)N(CCC#N)CCC#N`, the Potency is reported as “inactive”. For `CC(C)(C)c1cc(C(=O)NNc2cc(C(F)(F)F)ccc2Cl)n(Cc2ccccc2)n1`, the Potency was inconclusive [cytotoxic, single point].
